PubChem BioAssay AID493208 (National Center for Advancing Translational Sciences (NCATS), 2011)
About 340 (0.77%) of roughly 44,000 compounds were called active. Another 5% or so got no clear call; they are omitted. Calls come from the whole dose curve; as a rule, active = well fitted inhibition curve with a large enough effect; inconclusive = small, poorly fitted or top-dose-only effect; inactive = flat fitted curve, though single readings scatter. The list shows a part of the results.

test: Acumen qHTS Assay for Inhibitors of the mTORC1 Signaling Pathway in MEF (Tsc2-/-, p53-/-) Cells: Sytravon; conditions: phospho-rpS6 immunofluorescence/PI, 24 h; series mostly up to 38.3 µM; activity change, negative = inhibition: at the top concentration;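 note: plate controls were DMSO for no effect and rapamycin for full effect; nearly all actives have a fitted effect of over 50% in size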
Procedure, shortened: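 Cell-based qHTS: Tsc2-/- p53-/- MEF, 24 h cpd, 37 °C; fix/perm, anti-phospho-S6 Alexa-488 + PI; Acumen 488 nm scan; pS6/PI ratio, % positive cells; rapamycin 7.5 nM = inhibition ref; PI count = viability.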

SMILES | activity change, negative = inhibition
O=C(c1ccc2c(c1)N(Cc1cccc(Cl)c1)C(=O)c1ccccc1S2=O)N1CCC(Cc2ccccc2)CC1 (centres undefined) | inactive: -3.41%
O=C(c1cccc([N+](=O)[O-])c1)N1CCN(c2ccc(Nc3ccccc3)nn2)CC1 | inactive: -8.64%
CCOC(=O)c1c(S(=O)(=O)N2CCC(C(=O)Nc3ccc(C)c(Cl)c3)CC2)c(C)n(C)c1C | inactive: 2.16%
CCn1nc(C)c2c(-c3ccccc3)cc(=O)n(C(C)C(=O)NCCc3ccc(Cl)cc3)c21 (centres undefined) | inactive: -25.4%
O=S(=O)(c1ccc(-c2cnc(C3CC3)o2)cc1)N1CCN(c2ccc(F)cc2)CC1 | inactive: -22.2%
CCOc1ccc(NC(=O)CCCn2c(C)c3cnn(-c4ccccc4)c(=O)c3c2C)cc1 | inactive: -4.58%
COc1ccc(OC)c(NC(=O)CSC2=Nc3ccccc3C3=NC(CC(=O)NCCc4ccccc4)C(=O)N23)c1 (centres undefined) | inactive: 0.751%
CCOc1cccc(CNCCCSc2nnnn2C)c1 | inactive: 0.939%
COc1ccc(-c2cc(C(F)(F)F)n3nc(C(=O)Nc4cc(C)ccc4C)cc3n2)cc1 | inactive: 3.37%
Cc1ccc2c(c1)c1c3n2CCN(C(=O)c2ccc(C(F)(F)F)cc2)C3CCC1 (centres undefined) | inactive: 4.32%
CC1=C(C(=O)OCc2ccc(C)cc2)C(c2cccc(F)c2F)CC(=O)N1 (centres undefined) | inactive: -3.13%
CCOC(=O)c1sc2ccccc2c1S(=O)(=O)N1CCN(c2cc(C)ccc2C)CC1 | inactive: -16.3%
COc1ccc(OCC(=O)Nc2ccc3nn(-c4ccc(OC)cc4)nc3c2)cc1 | inactive: -6.98%
COc1ccc(CCNC(=O)c2cc3c(=O)oc4ccc(C)cc4c3s2)cc1OC | inactive: -3.48%
CCNC(=O)c1cc2n(n1)CCCN(Cc1ccc(C)cc1)C2=O | inactive: 3.19%
O=C(C1CCN(c2ncnc3c2nc2n3CCCCC2)CC1)N1CCN(c2ccc(Cl)cc2)CC1 | inactive: 2.07%
Cc1nn(C(=O)c2cccc(F)c2)c(C)c1S(=O)(=O)N1CCOCC1 | inactive: -16.4%
Cc1ccc(NC(=O)c2c(NC(=O)c3ccccc3Cl)sc3c2CCC3)cc1 | inactive: -1.63%
COc1ccc(Nc2cc(C(=O)NC3CCCC3)c3ccccc3n2)cc1 | inactive: 0.0743%
COc1ccc(C2C=C(c3ccc(Br)cc3)Nc3nnnn32)c(OC)c1 (centres undefined) | inactive: -10.3%
COc1ccccc1CNc1nc2c(S(=O)(=O)c3ccccc3)nnn2c2ccc(Cl)cc12 | inactive: -9.53%
O=C(CCSCc1ccc(Cl)cc1)NCc1ccc(F)cc1Cl | inactive: 11.8%
CS(=O)(=O)N1CCc2cc(C(=O)N3CCN(c4ccccc4F)CC3)ccc21 | inactive: 0.533%
O=C(CSc1nccn1Cc1ccc(F)cc1)NCc1ccc(F)cc1 | inactive: -16.7%

SMILES | activity change, negative = inhibition
CN1CCN(C(=O)Cn2ncc3c4ccccc4n(Cc4ccc(Cl)cc4)c3c2=O)CC1 | inactive: 0.728%
Cc1cc(C)c(NC(=O)c2c(C)nn(-c3ccc(F)cc3)c2-n2cccc2)c(C)c1 | inactive: -8.44%
Cc1ccccc1NC(=O)Cn1nnc(C(=O)NCCc2ccccc2)c1N | inactive: 4.06%
O=C(NC1CCCCC1)c1ccc(CSc2nc3ccncc3n2Cc2ccc(F)cc2)cc1 | inactive: -1.31%
CCc1nn2c(=O)c(S(=O)(=O)Nc3ccc(Br)cc3F)c(C)nc2s1 | inactive: 4.57%
CC(=O)c1cccc(NC(=O)Cn2nc(C(F)(F)F)c3c2CCC3)c1 | inactive: 4.39%
NC(=O)c1nn2c(C(F)(F)F)cc(-c3ccc(Br)cc3)nc2c1Cl | inactive: -2.13%
CSc1nc(=O)c2c(n1C)NC(=O)CC2c1cc(F)cc(F)c1 (centres undefined) | inactive: -3.24%
Cc1ccc(C)c(N(C)C(=O)Cc2c(C(=O)O)[nH]c3ccc(Cl)cc23)c1 | inactive: -8.39%
CC(C)(C)CC(C)(C)c1ccc(OCC(=O)Nc2ccc(S(=O)(=O)Nc3ncccn3)cc2)cc1 | inactive: 1.23%
COc1ccc(C2C(C(=O)Nc3ccc(C)cc3C)=C(C)Nc3nc(SCc4cccc(C)c4)nn32)c(OC)c1 (centres undefined) | inactive: -16.9%
CN(C)c1ccc(Nc2nc3ccccc3n3nnnc23)cc1 | inactive: -0.899%
COc1ccccc1-c1nn2c(=O)cc(CN3CCN(C(=O)/C=C/c4ccccc4)CC3)nc2s1 | inactive: 8.36%
COc1cccc(CNC(=O)CN2C(=O)N(c3cccc(Cl)c3)S(=O)(=O)c3ccccc32)c1OC | inactive: 0.413%
COc1ccc(N2CCN(S(=O)(=O)c3ccc(-c4cnc(C5CC5)o4)cc3)CC2)cc1 | inactive: 0%
CC1=C(C(=O)Nc2ccc(C)cc2C)C(c2ccc(Br)cc2)n2ncc(C(=O)Nc3cccc(C)c3)c2N1 (centres undefined) | inactive: -0.658%
COc1ccccc1CNC(=O)CSc1nc(=O)[nH]c2c1CCC2 | inactive: -3.68%
CCOc1ccc(NC(=O)Cn2c(=O)n(CCCCC(=O)NCc3ccc4c(c3)OCO4)c(=O)c3ccccc32)cc1 | inactive: -8.77%
CCN(CC)c1ccc(-n2nc3cc(C)c(NC(=O)c4ccccc4C)cc3n2)c(C)c1 | inactive: 0.101%
CCc1ccc(S(=O)(=O)NCc2nc3cccnc3n2Cc2cccc(OC)c2)cc1 | inactive: -5.25%
CCCCCn1c(CNC(=O)c2ccccc2)nc2ccccc21 | inactive: 7.33%
Cc1c(Cl)cccc1Nc1nn2c(=O)c3ccc(C(=O)NCCC4=CCCCC4)cc3nc2s1 | inactive: -2.52%
Cc1cc(C)c(S(=O)(=O)N2CCN(Cc3ccc4c(c3)OCO4)CC2)cc1C | inactive: -3.18%
COc1ccc(S(=O)(=O)c2nnn(-c3ccc(C(C)C)cc3)c2C)cc1 | inactive: -3.62%

SMILES | activity change, negative = inhibition
Cc1ccc(-n2c(=O)c3c(C)c(C)sc3n(Cc3ccc(F)cc3Cl)c2=O)cc1C | inactive: -19.9%
COc1ccc(CCNC(=O)Cc2c(C)c3cc4c(C)coc4cc3oc2=O)cc1OC | inactive: 3.72%
Oc1ccc(-c2nc3ccc(Cl)cn3c2Nc2ccc3c(c2)OCO3)cc1 | inactive: -12%
CCOc1ccc(C2C(=O)N(C3CCCCC3)CC(=O)N2CCc2ccccc2)cc1OC (centres undefined) | inactive: -6.9%
COc1cc(C(=O)NCc2nc3cccnc3n2Cc2ccc(C)cc2)cc(OC)c1OC | inactive: -2.67%
Cc1cc(C)c(NS(=O)(=O)c2ccc(-c3coc(C)n3)cc2)c(C)c1 | inactive: -8.08%
CC(=O)c1ccc(NC(=O)Cn2ncc3c4ccccc4n(Cc4ccccc4)c3c2=O)cc1 | inactive: -5.58%
O=C(NCc1ccc(Cl)cc1)C1CCN(S(=O)(=O)c2ccccc2)CC1 | inactive: -0.0978%
COc1ccc(N(C(=O)c2ccccc2)S(=O)(=O)c2ccc3c(c2)n(C)c(=O)n3C)cc1 | inactive: 0.233%
O=C1CC(=O)Nc2cc(S(=O)(=O)N3CCOc4ccc(Cl)cc43)ccc2N1 | inactive: -1.27%
O=C(c1ccc2c(c1)N(Cc1cccc(Cl)c1)C(=O)c1ccccc1S2=O)N1CCN(c2cccc(C(F)(F)F)c2)CC1 (centres undefined) | inactive: -1.47%
Cc1ccc(N(C)C(=O)CN2C(=O)CCc3cc(S(=O)(=O)N4CCOCC4)ccc32)cc1 | inactive: 10.4%
O=C(NC1CC(=O)N(c2ccc(F)cc2)C1)c1ccc2c(c1)OCO2 (centres undefined) | inactive: -6.17%
O=C(Cn1c(=O)n2nc(-c3cccc(F)c3)nc2c2ccccc21)N1CCN(c2ccc(F)cc2)CC1 | inactive: -1.55%
Cn1c(=O)c2c(ncn2Cc2ccc(Cl)cc2)n(C)c1=O | inactive: -19.5%
CCN1CCN(C(c2ccccc2Cl)c2c(O)cc(C)n(Cc3ccco3)c2=O)CC1 (centres undefined) | inactive: 5.68%
Cc1cccc(Cn2nnc3c(=O)[nH]c(C4CCCN(C(=O)c5ccccc5Cl)C4)nc32)c1 (centres undefined) | inactive: -3.72%
CCc1ccc(NC(=O)Cn2c(=O)n(-c3cc(OC)c(OC)c(OC)c3)c(=O)c3ccccc32)cc1 | inactive: 3.88%
CC(NC(=O)c1ccc(F)cc1)c1nc2ccccc2[nH]1 (centres undefined) | inactive: 1.9%
COc1ccccc1NC(=O)c1cn(-c2ccccc2)nc1-c1ccccc1 | inactive: 0.175%
Cc1cc(C(=O)C(=O)Nc2nncs2)c(C)n1-c1ccc(Cl)cc1 | inactive: -6.43%
Cc1cccc(N2CCN(C(=O)c3noc4c3CCCCC4)CC2)c1C | inactive: 4.47%
N#Cc1nc(/C=C/c2ccc(F)cc2)oc1NCc1ccc(F)cc1 | inactive: -5.06%
COc1ccc(N2CCN(C(=O)CNS(=O)(=O)c3ccc(Br)s3)CC2)cc1 | inactive: -11.2%

SMILES | activity change, negative = inhibition
COc1ccc(OC)c(NC(=O)CN2CCCN(Cc3ccccc3Cl)S2(=O)=O)c1 | inactive: -10.4%
O=C(CNC(=O)c1ccc(F)cc1)OCc1cc(=O)n2nc(C3CCCCC3)sc2n1 | inactive: -1.72%
CCOc1ccccc1C(=O)NCc1nc2cccnc2n1Cc1ccc(C)cc1 | inactive: -3.71%
CCOc1cc(CNC(=O)c2ccc3c(c2)N(C)C(=O)C2CCCCN32)ccc1OC (centres undefined) | inactive: -9.17%
Cc1ccc(-n2ncc3c(NC4CCCCC4)ncnc32)cc1Cl | inactive: 10.8%
COc1ccc(CNC(=O)CCCn2nc(C)c3c(C)n(-c4ccc(C)cc4)nc3c2=O)cc1OC | inactive: -10.2%
CCN(c1ccccc1)c1nnc(NC(=O)Nc2ccc(Br)c(C)c2)s1 | inactive: -1.15%
O=C(c1ccc2c(Cl)c3c(nc2c1)CCCC3)N1CCN(c2cccc(C(F)(F)F)c2)CC1 | inactive: 1.19%
O=C(CSc1nccn1Cc1ccco1)Nc1cc(C(F)(F)F)ccc1Cl | inactive: -0.662%
O=C(CN1C(=O)COc2ccc(S(=O)(=O)N3CCCCCC3)cc21)N1CCN(c2ccccc2F)CC1 | inactive: 0.246%
CCOc1ccc(CNC(=O)CCS(=O)(=O)c2cc3c4c(c2)CCN4C(=O)CC3)cc1OC | inactive: 9.83%
COc1ccc2nc(NC(=O)c3cc(=O)c4cc(C)cc(C)c4o3)sc2c1 | inactive: -1.41%
COc1cc(OC)c(NC(=O)C2CCN(S(=O)(=O)c3ccc4c(c3)oc(=O)n4C)CC2)cc1Cl | inactive: 8.3%
COc1ccc2c(CNCCc3cccs3)c(C(=O)O)n(Cc3cccc(F)c3)c2c1 | inactive: 3.32%
Cc1ccc(CNC(=O)CN2CCN(Cc3ccc(F)cc3Cl)C2=O)cc1 | inactive: -0.502%
CCc1ccc(Nc2sc(C(=O)c3ccc(F)cc3)c(N)c2S(=O)(=O)c2ccccc2)cc1 | inactive: -6.77%
COc1ccc(OC)c(NC(=O)CCNS(=O)(=O)c2ccc3c(c2)oc(=O)n3C)c1 | inactive: -5.18%
Cc1ccc(-c2nc(CS(=O)CC(=O)NCCc3ccc(Cl)cc3)c(C)o2)cc1 (centres undefined) | inactive: -7.64%
CC(CNC(=O)CCCn1c(=O)c2cccn2c2ccc(F)cc21)c1ccccc1 (centres undefined) | inactive: 4.92%
Cc1cccc(C(=O)NNc2ncnc3c2cnn3-c2ccc(C)c(Cl)c2)c1 | inactive: -1%
COc1cc(NC(=O)C2Cc3ccccc3N2C(=O)c2ccccc2)cc(OC)c1 (centres undefined) | inactive: 13.2%
CCOc1ccc(-n2nc(CO)c(C(=O)NCC(C)O)n2)cc1 (centres undefined) | inactive: 0.814%
